B1: LINE1-mini (parent)
chain: GGCAGAGCUCAACACAGCGUGGCAAAGUGGCUGUGGCUAGACUGCC

The source gives no read counts; variants with many changes may rest on few reads.

In the data set the parent is B1. Kind of data set: self-cleavage, relative activity (ratio to wild type); higher = more cleavage; in vitro, sequencing; the parent is a self-cleaving ribozyme.
For the variant C18A A25G U28G U38A, the self-cleavage is 0.06. Regarding G17C C42U C45U, the self-cleavage worked out at 0.08. Turning to G17C G30C C45G, the self-cleavage turned out to be 0.04. Take G17C G22U C31A U38A G44A: the self-cleavage came out at 0.04. The same measure for C18A A41U C45G: 0.03; for C18A G22C C31G: 0.03; for C18A A24C G36A: 0.06. For the variant G17U U20G G22A G29U U32C U43C, the self-cleavage stood at 0.02. The same measure for C18A G22U G33A G40C A41U: 0.06; for G17U G19C G22U: 1.22; for C18A G21U C46A: 0.13. For the variant G17C U20G C46A, the self-cleavage is 0.26. On to G17U G40C C46U, for which the self-cleavage is 0.08.

As for G17U G22U A26G G33A G36C, the self-cleavage was 0.01. The same measure for G17U U20A G30U C46G: 0.11; for G17U C37G G40C: 0.01; for G17U G22A A25G: 0.04.

Turning to G17C G22U C42U, the self-cleavage is 0.36. The same measure for G17C G22U C42A: 0.08; for G17C G19C A25G U32A G33A: 0.04. The same measure for G17U G30A C46A: 0.51.

In the case of G17C U20C A24G C46A, the self-cleavage is 0.05. The same measure for G17U U38A G44A: 0.08; for G17U U38G G40C: 0.02; for G17U G22C G33C U34C: 0.02. Regarding G17C G19U A26G G33A U34G, the self-cleavage is 0. Regarding G17U G21U A24C, the self-cleavage is 1.44. For G17U G19A C37A A39U, the self-cleavage amounted to 0.08. Take G17C C23U C46A: the self-cleavage turned out to be 0.57.

As for G17U G35U C45A, the self-cleavage stood at 0.02. G17U G27C C45G: the self-cleavage stood at 0.04. As to G17U G22U C23A G27A G40A C45A, the self-cleavage came to 0.38.

G17U C23U A24U: the self-cleavage was found to be 0.14.

Regarding G17U G27A G35A, the self-cleavage stood at 0.06.

Regarding C18A A24U C37G C45A, the self-cleavage was determined as 0.01. Turning to G17U C18G G22A A25C G27C C37U, the self-cleavage was 0.02.

For G17U G22U A26C C42U, the self-cleavage was found to be 0.09. The same measure for G17C U32A C37A: 0; for G17U G35A U38C U43A G44A: 0.05; for G17U U28C U34A: 0.05. On to C18A G21U G29U, for which the self-cleavage was 1.96. Take G17C G21C A24G C46U: the self-cleavage came to 0.14.

For G17U G19C A41U G44U, the self-cleavage stood at 0.06. In the case of C18A G19A A26C C37U G44U, the self-cleavage came out at 0.08.

Consider G17C U34G G40C, for which the self-cleavage was found to be 0.02. The same measure for G17U C18U C42U: 0.03.

On to G17U G35U U43G G44C, for which the self-cleavage was determined as 0.01. On to C18A G22U G30A G40C C45U, for which the self-cleavage is 0.03. The same measure for G17C G36U C45A: 0.01.

As for G17C G30C G35A, the self-cleavage amounted to 0.02. G17C C31U C45U: the self-cleavage worked out at 0.09. As for G17U C18A G19C U20G A26G U32C G33A, the self-cleavage came out at 0.03. The same measure for G17U G22C A24G U28A: 0.34. The same measure for C18A A24G C45U: 0.24.

Turning to G17U C31A G44C, the self-cleavage was 0.14. The same measure for G17U U20C A25G: 0.25; for G17C G27C G36C C46G: 0.05. Consider G17U U20A U43A C45A, for which the self-cleavage was found to be 0.02. The same measure for G17U U38C C42A: 0.14; for G17C C23G U32C: 0.01; for G17C G22U C31U U34C G40A C45G: 0.02. Consider C18A A39C G40U C46G, for which the self-cleavage is 0.02. In the case of G17C G22A G36U C46U, the self-cleavage was found to be 0.01. The same measure for G17C G22A G35C G40C C46A: 0.1; for G17C G29U C42A: 0.08. Consider G17U G36U G44C, for which the self-cleavage came to 0.06. On to G17U A24C A41C, for which the self-cleavage amounted to 0.04. The same measure for G17C G19U C46A: 0.15. As to G17C C42A G44U, the self-cleavage was 0.04. The same measure for G17U A24G G33U: 0.04; for G17C G27U U34C C37U A39G: 0.03; for G17U U28G G36U: 0.01. The same measure for G17U U34G A39C: 0.04. The same measure for G17U C23G G30C: 0.07; for G17C G19C A25G: 0.58.

As to G17C G36U A41U, the self-cleavage worked out at 0.08. The same measure for G17C G19A G21C G33A: 0.11; for G17C G21U G35U A41C: 0.04; for G17U C18G G40U: 0.02. Consider C18A A26U C46G, for which the self-cleavage was determined as 0.15.

Take G17C G19U C37U G44U: the self-cleavage turned out to be 0.18.

Consider G17U U20C A24U U43C, for which the self-cleavage was 0.04. With C18A G19C G22U U34C, the self-cleavage is 0.06. Consider G17U A25U G30U C31G, for which the self-cleavage came to 0.06. The same measure for G17C C18U C31G: 0.17; for G17U G21C U32G C46U: 0.02; for C18A A25U G44U: 0.03. The same measure for G17C C23U G35A: 0.03; for C18A A25C C42A: 0.07.

For the variant G17C G19A U34A C45U, the self-cleavage turned out to be 0.02. The same measure for G17U C31G A39U G40C: 0.09. Take G17C G21A G29C: the self-cleavage is 1.33. The same measure for G17U U28G C37U: 0.1; for G17U A25U G29C C31G C46G: 0.71.

Regarding G17U U20C C42G, the self-cleavage is 0.04. Consider C18A G19U A24G C31A, for which the self-cleavage amounted to 0.35. On to G17U A24C G36A C37G C45A, for which the self-cleavage was determined as 0.02.

Turning to G17C C23A G29U U43A, the self-cleavage worked out at 0.02. The same measure for G17U C31G G35C: 0.02.

For the variant C18A C23U A26G G27U A41G, the self-cleavage turned out to be 0.14. In the case of G17U G19A U20G, the self-cleavage turned out to be 0.04.

Turning to C18A G21U C37G U38C, the self-cleavage is 0.04. For the variant G17C G19U U20G G21U, the self-cleavage is 0.76. The same measure for G17U U20A C31G G33U: 0; for G17C G29C G40U: 0.05.

Take G17C G22U A39U: the self-cleavage stood at 1.5. In the case of G17U G22U A26G, the self-cleavage came out at 0.07. In the case of G17U G33A C45G, the self-cleavage is 0.04.

For the variant C18A A26U U38G, the self-cleavage is 0.01. The same measure for G17C G29C G35C C42U: 0.01. The same measure for G17C C31G G33A G40U: 0. The same measure for G17U G21A A39C: 0.06; for C18A G21A C31U G40A: 0; for C18A A25U A39C: 0. Turning to C18A G19C U34G, the self-cleavage is 0.1.

Take G17U C23A G33C G36U: the self-cleavage was 0.03.

Regarding G17U C18A C23U C31U C46G, the self-cleavage is 0.03. The same measure for C18A C23A G33A U34A A39G: 0.01.

For G17C C31U G33A G36A, the self-cleavage came to 0.1. The same measure for G17C C23U A25U A26G: 0.1; for G17U C23G C46A: 0.19; for G17U U20A A24C G29U G36A C46U: 0.02.

C18A G21U C37A: the self-cleavage is 0.09. With C18A A39U U43G C46G, the self-cleavage stood at 0.03.

Take G17U G19U G29U: the self-cleavage was determined as 0.4. Regarding G17C G29A C46U, the self-cleavage is 0.06. In the case of G17C G29A C46A, the self-cleavage was determined as 0.05. As to G17U G30C G36C G40C U43C G44A C45U, the self-cleavage worked out at 0.01. The same measure for G17C G30U U38G: 0.08. The same measure for G17C C31A G35A: 0.02; for G17C G22A G36A: 0.07; for G17C U28A G30A C31G: 0.76. For G17U U32G C42U, the self-cleavage is 0.04. The same measure for G17C G27U C31A: 0.56; for G17U G22A A41U C46G: 0.02. In the case of G17U G27A C46U, the self-cleavage worked out at 0.09.

Turning to C18A G22C G29U C31A U43C, the self-cleavage was 0.02. The same measure for C18A C45U C46A: 0.1. For G17C G19U G36U C37A, the self-cleavage turned out to be 0.12. For G17C G19A G27C, the self-cleavage stood at 0.18. Consider G17U G19C G35U, for which the self-cleavage amounted to 0.04.

Consider G17U G22U G27U G30A U38C, for which the self-cleavage was 0.83. The same measure for G17U G22A G36A C37G: 0.02; for G17U G22U G30A U34A C37A: 0.08. The same measure for C18A C23A G30A G40A: 0.29; for G17C G21A A25G C37A: 0.39; for G17U C23G G33A A39C: 0.03. The same measure for G17U G19A A39G: 0.09; for G17U G29U C37U A41C: 0.02. Consider C18A G22A G27U G33U, for which the self-cleavage came to 0.05.

Regarding G17U G27A G29A, the self-cleavage turned out to be 0.12. The same measure for G17U U20A C42G: 0.01; for G17U G22U C23G G35U G44U: 0.03; for C18A A26C U28C C31G C46U: 0.01.

As for G17C G19U A26C G27U C42U, the self-cleavage was found to be 0.05. The same measure for G17C G33U G40A U43G: 0; for G17U C18U G22C C31A C46U: 0.21. G17U U20A G27C: the self-cleavage came to 0.24. The same measure for C18A C23G G44U: 0.09. Turning to G17U G36C U38C C46G, the self-cleavage was 0. Regarding G17U C18A G35C, the self-cleavage stood at 0.2. The same measure for G17U A26C G35U: 0.02; for G17C G27A C42A: 0.07. As for C18A A24C C45G, the self-cleavage is 0.02. The same measure for G17C U28A C46U: 0.08; for C18A C31A U34C G40C: 0.01.

As to C18A G19U G40U U43G, the self-cleavage was 0.18.

The values are drawn from the RNAGym collection of RNA variant scans (doi:10.7554/elife.90254).
